Measurements taken from the supplement of paper PMC4723716.
± gives the uncertainty stated by the source. Whole data set: some 9,900 compounds, median “viability index relative to DMSO control” near 1, cut for the lowest 2% near 0.85. Some of the results follow.

Test system: Plasmodium falciparum NF54 stage V gametocytes
Experiment: viability index relative to DMSO control (fraction); higher = less gametocyte killing
Details: 2.5 µM, library set: Broad Institute DOS, incubation time: 72 h
Summary of the method: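 Gametocytes (P. falciparum NF54, stage V) were treated with compound at 2.5 µM for 72 hr at 37°C in low oxygen, in serum-free medium at 0.75% gametocytemia and 1.25% hematocrit. Counts of 20–70 µm2 red particles, taken from one field per well after MitoTracker Red CMXRos with saponin, were divided by the plate mean of solvent-only wells. This ratio is the viability index.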

| Structure (SMILES) | viability index |
| --- | --- |
| CCC(=O)Nc1ccc2c(c1)C(=O)N(C)C[C@H](OC)[C@@H](C)CN(Cc1nccs1)[C@H](C)CO2 | 1.072 ± 0.0019 |
| CN(C[C@@H]1[C@@H](c2ccccc2)[C@@H](CO)N1Cc1ccccn1)S(C)(=O)=O | 1.03 ± 0.018 |
| COc1ccc(S(=O)(=O)Nc2ccc3c(c2)C(=O)N([C@@H](C)CO)C[C@H](C)[C@H](CN(C)Cc2ccc(C(F)(F)F)cc2)OCCCC[C@H](C)O3)cc1 | 0.987 ± 0.16 |
| CCCNC(=O)N1CC[C@@]2(CC1)CN(Cc1cccc(OC)c1)[C@H](CO)c1[nH]c3cc(OC)ccc3c21 | 1.08 ± 0.065 |
| CCC(=O)N1[C@@H](CO)[C@@H](c2ccccc2)C12CN(Cc1ccccc1Cl)C2 | 1.1 ± 0.028 |
| O=C(Cc1cccnc1)N1[C@H](CNCC2CCC2)[C@H](c2ccccc2)[C@@H]1CO | 1.01 ± 0.043 |
| O=S(=O)(c1cccc(Cl)c1)N1[C@@H]2CNC[C@H]1[C@@H]2c1ccc(-c2cccnc2)cc1 | 1.125 ± 0.002 |
| CO[C@@H]1CC[C@H]2CCN(C)C(=O)[C@H](C)CN(C)C(=O)c3cc(C#N)ccc3OC[C@@H]1O2 | 0.973 ± 0.056 |
| O=C(Cc1ccncc1)N1CC(=O)N2[C@H](CO)[C@H](c3ccc(Br)cc3)[C@@H]2C1 | 1.1 ± 0.089 |
| O=C(Nc1cccc(F)c1)N1CCCCN2[C@H](CO)[C@H](c3ccc(C#Cc4cccnc4)cc3)[C@@H]2C1 | 1.05 ± 0.024 |
| CCCNC(=O)N1CC[C@@]2(CC1)CN([C@@H](CO)c1[nH]c3cc(OC)ccc3c21)C(=O)COC | 0.921 ± 0.14 |
| O=C(CN1CCOCC1)NC[C@@H]1N[C@@H](CO)[C@@H]1c1ccc(-c2ccccc2)cc1 | 1.05 ± 0.088 |
| Cc1ccccc1S(=O)(=O)N1CC[C@@H]2[C@@H](CO)Nc3ccc(-c4ccc(F)cc4)cc3[C@@H]21 | 1.1 ± 0.06 |
| COc1ccccc1NC(=O)N1CC[C@@H]2[C@H]1c1cc(C#Cc3cccc(F)c3)ccc1N(C)[C@@H]2CO | 1.01 ± 0.023 |
| OC[C@@H]1[C@@H](c2ccccc2)C2(CN(Cc3ccccn3)C2)N1Cc1cncnc1 | 1.09 ± 0.054 |
| Cc1noc(C)c1S(=O)(=O)Nc1ccc2c(c1)CC(=O)N([C@H](C)CO)C[C@@H](C)[C@@H](CN(C)Cc1ccc(Oc3ccccc3)cc1)O2 | 0.948 ± 0.021 |
| COc1ccccc1NC(=O)N1CCCCN2[C@H](CO)[C@H](c3ccc(-c4cccc(C#N)c4)cc3)[C@H]2C1 | 1.07 ± 0.011 |
| CCCNC(=O)C[C@@H]1CC[C@H]2[C@@H](COC[C@@H](O)CN2C(=O)c2ccc(F)cc2)O1 | 1.05 ± 0.025 |

| Structure (SMILES) | viability index |
| --- | --- |
| C[C@H](CO)N1C[C@H](C)[C@H](CN(C)C(=O)Nc2ccc3c(c2)OCO3)OCc2ccccc2-c2c(n(C)c3ccccc23)C1=O | 1.02 ± 0.057 |
| CO[C@H]1CN(C)C(=O)c2ccc(NS(=O)(=O)CC(F)(F)F)cc2OC[C@@H](C)N(Cc2nccs2)C[C@@H]1C | 1.05 ± 0.028 |
| COc1cccc(NC(=O)C[C@H]2CC[C@@H]3[C@@H](COc4ccc(NC(=O)C5CC5)cc4C(=O)N3C)O2)c1 | 1.24 ± 0.05 |
| COc1ccc(NC(=O)N2C[C@@]3(C2)CN([C@@H](CO)c2[nH]c4cc(OC)ccc4c32)C(C)=O)cc1 | 1.01 ± 0.1 |
| COc1ccc2c3c([C@@H](CO)N(Cc4ccccc4Cl)C[C@]33CCN(CC3)C(=O)CC3CC3)n(C)c2c1 | 0.939 ± 0.025 |
| CCCNC(=O)N(C)C[C@H]1Oc2cc(C#C[C@@H](C)O)ccc2S(=O)(=O)N([C@H](C)CO)C[C@H]1C | 1.08 ± 0.019 |
| CCCC(=O)N1CC[C@@]2(CC1)CN([C@H](CO)c1c2c2ccc(OC)cc2n1C)C(C)=O | 1.05 ± 0.14 |
| C[C@@H]1CCCCO[C@@H](CN(C)C(=O)Cc2ccccc2)[C@H](C)CN([C@H](C)CO)C(=O)c2cc(NS(C)(=O)=O)ccc2O1 | 1.12 ± 0.058 |
| C[C@H](NC(=O)[C@H]1[C@H](CO)[C@H]2Cn3c(ccc(-c4ccccc4)c3=O)[C@H]2N1C)c1ccccc1 | 1.03 ± 0.049 |
| COc1ccc(-c2ccc([C@@H]3[C@H]4CN(C(=O)Cc5ccccn5)CC(=O)N4[C@H]3CO)cc2)cc1 | 0.977 ± 0.015 |
| COCCNC(=O)C[C@@H]1CC[C@H]2[C@@H](COC[C@@H](O)CN2S(=O)(=O)c2ccccc2F)O1 | 1 ± 0.017 |
| CN(C)CC(=O)N1C[C@@H]2[C@H](c3ccccc31)[C@H](CO)N2C(=O)c1ccccn1 | 1.03 ± 0.061 |
| CCC(=O)N1[C@H](CN(CC)C(=O)c2cccc(F)c2)[C@H](c2ccccc2)[C@@H]1CO | 0.987 ± 0.011 |
| COc1ccccc1-c1ccccc1[C@@H]1[C@@H](C#N)N(C(=O)C2CCOCC2)[C@H]1CO | 1.05 ± 0.16 |
| O=C(c1cnccn1)N1CC(=O)N2[C@H](CO)[C@H](c3ccc(-c4cccc(F)c4)cc3)[C@@H]2C1 | 1.04 ± 0.1 |
| COCC(=O)Nc1ccc2c(c1)[C@H]1C[C@@H](CC(=O)NCc3ccc4c(c3)OCO4)O[C@@H](CO)[C@H]1O2 | 1.06 ± 0.013 |
| O=C(Nc1ccc(C(F)(F)F)cc1)Nc1ccc2c(c1)[C@@H]1C[C@H](CC(=O)N3CCc4ccccc4C3)O[C@@H](CO)[C@@H]1O2 | 0.939 ± 0.014 |
